Experimental data: publication PMC4336329 (PLoS ONE, 2015)
The whole screen tested about 310,000 compounds, of which about 14,000 (4.5%) showed an effect of 50% or more. Effects have a minus sign here. The list shows a part of the results.

Biological target: human ether-à-go-go-related gene (hERG) potassium channel (human, UniProt Q12809)
Assay: primary screen, population patch clamp on CHO cells stably expressing hERG
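Also: peak tail current of the secondary pulse compared with the same well before compound.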

human ether-à-go-go-related gene (hERG) potassium channel, sequence (Q12809 whole entry, looked up): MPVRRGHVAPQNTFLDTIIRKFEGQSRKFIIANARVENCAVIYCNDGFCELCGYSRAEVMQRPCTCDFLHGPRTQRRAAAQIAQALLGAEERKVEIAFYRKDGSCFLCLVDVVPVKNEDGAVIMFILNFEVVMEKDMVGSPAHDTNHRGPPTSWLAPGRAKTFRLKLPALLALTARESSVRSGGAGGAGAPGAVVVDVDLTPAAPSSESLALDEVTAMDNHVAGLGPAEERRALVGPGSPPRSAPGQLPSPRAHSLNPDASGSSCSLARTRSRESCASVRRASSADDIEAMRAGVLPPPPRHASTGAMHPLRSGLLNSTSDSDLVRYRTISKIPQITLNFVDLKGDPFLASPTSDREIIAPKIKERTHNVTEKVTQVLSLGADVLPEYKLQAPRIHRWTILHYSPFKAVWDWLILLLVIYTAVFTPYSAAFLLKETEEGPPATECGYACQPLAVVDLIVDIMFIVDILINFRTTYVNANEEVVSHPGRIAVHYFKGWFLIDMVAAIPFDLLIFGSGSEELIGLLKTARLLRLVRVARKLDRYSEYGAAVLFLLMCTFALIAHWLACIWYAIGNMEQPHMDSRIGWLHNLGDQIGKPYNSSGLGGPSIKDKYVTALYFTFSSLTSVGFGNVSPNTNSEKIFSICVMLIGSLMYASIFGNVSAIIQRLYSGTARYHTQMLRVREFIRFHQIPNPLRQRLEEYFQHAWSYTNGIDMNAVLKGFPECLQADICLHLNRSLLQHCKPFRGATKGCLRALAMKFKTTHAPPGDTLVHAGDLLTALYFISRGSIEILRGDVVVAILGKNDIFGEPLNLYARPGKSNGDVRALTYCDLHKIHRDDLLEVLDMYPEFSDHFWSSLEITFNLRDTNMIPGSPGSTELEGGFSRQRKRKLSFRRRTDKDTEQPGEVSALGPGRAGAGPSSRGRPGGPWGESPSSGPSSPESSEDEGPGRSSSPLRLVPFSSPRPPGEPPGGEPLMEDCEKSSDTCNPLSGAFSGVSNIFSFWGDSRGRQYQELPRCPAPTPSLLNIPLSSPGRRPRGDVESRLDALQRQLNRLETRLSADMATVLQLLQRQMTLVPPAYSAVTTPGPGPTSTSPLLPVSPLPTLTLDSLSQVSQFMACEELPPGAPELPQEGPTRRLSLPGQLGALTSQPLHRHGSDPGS

Point of comparison: `CCNC(=S)NCc1ccco1`, “hERG current change (%, negative = inhibition) at 10uM” value 2.01%. Against it:
- COc1ccccc1NC(=O)c1ccc(NC(=O)CSc2ncccn2)cc1 — lower, -10.6%
- O=C1CN(C(=O)CN2CCCC2)C(c2ccccc2)c2cc(Br)ccc2N1 (stereo not drawn) — lower, -46.6%
- CC(=O)OCCNC(=O)Cn1cnc2c1c(=O)n(C)c(=O)n2C — higher, 4.82%
- O=C(CCCCCNC(=O)c1ccccc1)N/N=C/c1ccccc1 — lower, -9.98%
- O=C(Nc1nnc(CCS(=O)(=O)c2ccc3ccccc3c2)s1)c1ccc([N+](=O)[O-])cc1 — higher, 13.6%
- CCn1c(C)cc(/C=C2/NC(=O)N(Cc3ccccc3F)C2=O)c1C — higher, 19.8%
- COc1ccc(CCNC(=O)C2CCN(S(=O)(=O)c3ccc(Cl)cc3)CC2)cc1OC — lower, -10.5%
- CCCc1nnc(NC(=O)C2CCN(C(=O)c3ccco3)CC2)s1 — higher, 3.58%
- O=C(NC1CC2CCCC(C1)N2S(=O)(=O)c1ccccc1)C1CCCCC1 (stereo not drawn) — lower, -2.61%
- C=CCNC(=S)/N=c1/ccccn1Cc1ccccc1 — higher, 13.1%
- Cc1ccc2nc(-c3ccc(SCC(=O)N4CCc5ccccc54)nc3)[nH]c2c1 — lower, 0.771%
- Cn1c(=O)cc(OCC(=O)N2CCN(c3cccc(C(F)(F)F)c3)CC2)c2ccccc21 — lower, -4.91%
- COc1ccc(CN(CC(=O)NCCc2ccccc2)C(=O)CCC(=O)Nc2cc(C)ccn2)cc1 — lower, -24.6%
- Cc1ccc(SCC(=O)n2nc(C)cc2C)cc1 — higher, 16%
- COc1cccc(CNS(=O)(=O)c2ccc(-n3cnnn3)c(C)c2)c1 — lower, -8.54%
- COCCN(C(=S)Nc1ccccc1C)C(C)c1cccs1 (stereo not drawn) — lower, -3.22%
- O=C(NNC(=O)C(O)c1ccccc1)NC1CCCCC1 (stereo not drawn) — higher, 13.9%
- Cc1ccsc1/C=N/Nc1nc(Cl)c(Cl)cc1Cl — higher, 8.03%
- C[C@H]1CN(Cc2ccccc2)C(=O)[C@@H]1CC(=O)NCc1ccccc1 — lower, 1.31%
- COc1ccc(OC)c(NS(=O)(=O)c2ccc(Br)s2)c1 — lower, -12.4%
- Cc1ccc(NC(=O)CN2CCC(C(N)=O)CC2)cc1[N+](=O)[O-] — lower, -11.1%
- COc1ccc(CCc2cc(OC)cc(=O)o2)cc1 — lower, -0.477%
- CCN(CC)c1ccc(NC(=O)CN2CCN(c3nc(C)cc(C)n3)CC2)cc1 — lower, -21.7%
- CCC(C)[C@H](N)c1nnc(SCC(=O)Nc2cccc(Cl)c2)o1.Cl (stereo partly drawn) — lower, -15.6%
- Cc1ccsc1-c1nc(CN2CCN(C)C(=O)[C@@H]2C)c(C)o1 — lower, -52.5%
- O=CNCC(=O)NC1CCCCCC1 — higher, 20.5%
- O=C(NCc1ccc(-c2csnn2)cc1)c1cc(Cl)cc(Cl)c1 — lower, 0.59%
- COc1ccc(S(=O)(=O)Nc2c(C(=O)O)[nH]c3ccc(OC)cc23)c(OC)c1 — higher, 32.2%
- CCOc1ccc(S(=O)(=O)N(CC)CC(=O)NCc2cccnc2)cc1 — lower, -38%
- O=C(c1ccc(Cl)c(Cl)c1)N1CCC(=O)N(C(COCc2ccccc2)Cc2ccccc2)CC1 (stereo not drawn) — lower, -46%
- O=C(COc1ccc([N+](=O)[O-])cc1)NC(C(=O)O)C(O)c1cccc([N+](=O)[O-])c1 (stereo not drawn) — higher, 13.2%
- O=C(Nc1ccc(-c2csc(Nc3cccc(C(F)(F)F)c3)n2)cc1)c1cccc(C(F)(F)F)c1 — higher, 9.98%
- COc1ccccc1CNC(=O)Cn1nc(C(F)(F)F)cc1C — lower, -1.14%
- CN(C(=O)COc1ccc(Oc2ccccc2)cc1)C1CCS(=O)(=O)C1 (stereo not drawn) — lower, -8.76%
- COc1cc2cc(Oc3ccc4ccc(=O)oc4c3)c(=O)oc2cc1O — higher, 16.5%
- CC1CCCCC12NC(=O)N(CC(=O)c1ccc[nH]1)C2=O (stereo not drawn) — lower, 0.351%
- Cn1cnnc1SC1CCCCC1NS(=O)(=O)c1ccccc1 (stereo not drawn) — lower, -0.847%
- CCn1nc(C)c(CNC(=O)c2cc(COc3ccccc3SC)on2)c1C — higher, 15.9%
- COC(=O)c1sccc1NC(=O)Nc1ccccc1C — higher, 9.22%
- COCn1c(-c2ccccc2)nc2ccccc21 — lower, -5.43%
- CC(Oc1ccc2cc(-c3ccccc3)c(=O)oc2c1)C(=O)NCC1CCC(C(=O)O)CC1 (stereo not drawn) — higher, 15.7%
- Brc1cccc(CNc2nc3ccccc3n2CCN2CCCCC2)c1 — lower, -67.8%
- CCc1nnc(NC(=O)C2CC(=O)N(Cc3ccccc3)C2)s1 (stereo not drawn) — higher, 13.4%
- CC(C)=C(NC(=O)c1ccccc1)C(=O)Nc1cccc(C(=O)O)c1 — higher, 12.1%
- Cc1nc(N)sc1-c1csc(Nc2cccc(O)c2)n1 — lower, -1.08%
- CC(=O)N1CCN(c2nc(N)c(C#N)c(CC#N)c2C#N)CC1 — lower, -7.08%
- COC(=O)C1=C(C)N(C)C(=O)NC1c1cccc2ccccc12 (stereo not drawn) — higher, 9.62%
- O=C(CSc1nc2ccccc2[nH]1)Nc1ccc2[nH]c(=O)[nH]c2c1 — higher, 7.16%
- CCOC(=O)/C(C#N)=C/c1cn(CCOc2ccc(OC)cc2)c2ccccc12 — higher, 2.19%
- COc1ccc(NC(=O)c2ccc(NCCN3C(=O)CCC3=O)c([N+](=O)[O-])c2)cc1 — higher, 3.51%
- C=CCNC(=O)C1CC(=O)N(c2ccc(OCC(=O)NCc3ccccc3)cc2)C1 (stereo not drawn) — lower, -2.6%
- Cn1c(C(=O)NCCCN2CCN(c3ccccc3F)CC2)cc2c(=O)[nH]c3ccccc3c21 — lower, -10.9%
- O=C(O)Cc1cc(C(=O)Nc2ccc(Br)cc2)sc1-c1ccccc1 — higher, 8.22%
- COc1ccccc1NC(=O)CC(c1ccc(OC(C)C)cc1)c1ccccc1OC (stereo not drawn) — lower, -1.62%
- COc1ccc(S(=O)(=O)Nc2ccccc2SC)cc1C — lower, -26.6%
- CN(c1ccccc1)S(=O)(=O)c1nnc(NC(=O)COc2ccccc2)s1 — higher, 24.5%
- COCCn1c(SCC(=O)c2ccc3c(c2)OCCO3)nnc1C(C)C — lower, 1.5%
- CCO.N#CC1=C(N)Oc2c(oc(CO)cc2=O)C1c1ccccc1[N+](=O)[O-] (stereo not drawn) — lower, -1.44%
- O=[N+]([O-])c1ccc(SCc2ccncc2)nc1 — higher, 30.3%
- CC(C(=O)Nc1cc(C(F)(F)F)ccc1N1CCOCC1)N1C(=O)C2CC=CCC2C1=O (stereo not drawn) — lower, -13.5%
- CC(C)c1cc(C(=O)OCC(=O)NC(=O)NCc2ccco2)c(O)c(C(C)C)c1 — higher, 22.5%
- Cc1nccn1CCCNC(=O)CC1C(=O)NCCN1Cc1ccccc1C(F)(F)F (stereo not drawn) — higher, 9.64%
- Cc1cc(C)nc(SCC(=O)NNC(=O)c2cccs2)n1 — lower, -7.19%
- CCOC(=O)CSC1=C(C#N)C(c2ccccc2C)C2=C(CCCC2=O)N1 (stereo not drawn) — lower, -1.96%
- Cc1cc(C)c(NS(=O)(=O)c2ccc(Cl)c(C(=O)O)c2)c(C)c1 — lower, -6.04%
- CCOC(=O)C1(CCCc2ccccc2)CCN(C2CCCC2)CC1 — lower, -69.7%
- O=C(CN1CCC(NC(=O)Cc2ccccc2)CC1)Nc1ccccc1Br — lower, -29.2%
- COc1ccc(CNC(=O)COc2ccc(OC)cc2)cc1 — higher, 13.8%
- O=C1NC(=O)C(=Cc2ccc(-c3ccccc3[N+](=O)[O-])o2)C(=O)N1 — lower, 1.79%
- CNC[C@H](CC1CCCCC1)NC[C@H](Cc1ccccc1)NCCC12CC3CC(CC(C3)C1)C2 — higher, 7.27%
- Cc1cc(C(=O)N/N=C/c2cccc(OC(=O)c3cccc(Br)c3)c2)n[nH]1 — higher, 11.7%
- Cl.OCCN1CCN(CC(O)COCCOc2ccc(Br)cc2)CC1 (stereo not drawn) — lower, -20.2%
- OCCC1CN(Cc2ccc3c(c2)CCO3)CCN1C1CCCC1 (stereo not drawn) — lower, -12.7%
- Fc1ccc(-c2csc(Nc3ccccn3)n2)cc1 — higher, 13.8%
- Cc1ccc(C(=O)N2CCN(S(C)(=O)=O)C2)cc1 — lower, -5.49%
- Cc1ccc(S(=O)(=O)NCCC(=O)Nc2cc(S(=O)(=O)N(C)C)ccc2C)cc1C — lower, -7.95%
- O[C@@H]1CN(Cc2ccc(-n3cccn3)cc2)CC[C@H]1N1CCN(c2ccccc2F)CC1 — lower, -67.5%
- CCCOc1cccc(C(=O)NCCNC(=O)c2ccccn2)c1 — higher, 2.07%
- COC(=O)c1ccsc1NC(=O)CN1CCN(c2ncccn2)CC1 — lower, -1.35%
- COc1ccc(C2(C)NC(=O)N(CC(=O)NC(C)c3ccc(CC(C)C)cc3)C2=O)cc1 (stereo not drawn) — lower, -7.75%
- O=C(NNC(=O)c1ccncc1)Nc1ccc([N+](=O)[O-])cc1 — higher, 11.2%
- COc1ccc(-c2cn(-c3ccc(C)cc3)c(=O)n2CC(=O)Nc2ccc(OC)c(OC)c2)cc1 — lower, -2.89%
- CCOC(=O)c1ccc2c(c1)N(CC)C(=O)c1ccccc1S2 — lower, -6.71%
- Oc1csc(Cc2nc(-c3ccc(-c4ccccc4)cc3)cs2)n1 — higher, 4.65%
- N#Cc1c(Cl)nsc1NC(=O)c1ccccc1 — higher, 8.24%
- O=C(Nc1ccc2c(c1)CCC2)c1cccc(S(=O)(=O)Nc2ccccc2Cl)c1 — higher, 10.4%
